Here are results for five molecules from article PMC3002306.

The chains behind the UniProt entries cited, without tags or fusion partners. Where a name states a change or a piece, a line headed by the entry shows the natural chain unless it says otherwise. A line that says so, or that is headed by a name, gives the form on record, which may keep a tag or linker. Residues count along the entry.
GST fused to the cap domain of hu-TOP1 (E236/N237) (P11387, residues 219-433): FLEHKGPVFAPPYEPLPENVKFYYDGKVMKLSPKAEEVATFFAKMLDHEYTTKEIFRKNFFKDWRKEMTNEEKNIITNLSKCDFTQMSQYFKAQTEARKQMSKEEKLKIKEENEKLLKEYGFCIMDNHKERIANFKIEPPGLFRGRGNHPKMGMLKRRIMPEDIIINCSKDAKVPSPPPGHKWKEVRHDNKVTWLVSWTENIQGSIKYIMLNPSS
GST fused to the cap domain of hu-TOP1 with AGM residues D236/S237 (P11387, form named): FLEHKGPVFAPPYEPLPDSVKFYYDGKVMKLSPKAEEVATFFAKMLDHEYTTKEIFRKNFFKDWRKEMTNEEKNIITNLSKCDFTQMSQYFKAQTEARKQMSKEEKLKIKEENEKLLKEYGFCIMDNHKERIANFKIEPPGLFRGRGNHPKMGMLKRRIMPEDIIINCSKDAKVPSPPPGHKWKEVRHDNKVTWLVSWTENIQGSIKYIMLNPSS

Test [1] addresses GST fused to the cap domain of hu-TOP1 with AGM residues D236/S237 (human) (UniProt P11387). Put plainly: pull-down; GST-capTOP1 on glutathione beads incubated with cell extracts containing C-terminal regions of BTBD1 and BTBD2; Western blot with a polyclonal antibody recognising both; only the target purified. A general note: Immunoblotting shows a protein as a band on a membrane.

Test [2] concerns the target GST fused to the cap domain of hu-TOP1 (E236/N237) (human) (UniProt P11387). The description is as above.
Test [3] addresses GST fused to the cap domain of hu-TOP1 with AGM residues D236/S237 (human) (UniProt P11387). Briefly: pull-down; GST-capTOP1 on glutathione beads incubated with extracts of 293T cells or HeLa cells; endogenous BTBD1 and BTBD2 detected with specific peptide antibodies; only the target purified.
The target in test [4] is GST fused to the cap domain of hu-TOP1 (E236/N237) (human) (UniProt P11387). The test is described as above.
For test [5], the target named is T1, BTBD2 (two-hybrid construct of the unpublished BTBD1-BTBD2 assay) (UniProt Q9BX70).
T1 sequence: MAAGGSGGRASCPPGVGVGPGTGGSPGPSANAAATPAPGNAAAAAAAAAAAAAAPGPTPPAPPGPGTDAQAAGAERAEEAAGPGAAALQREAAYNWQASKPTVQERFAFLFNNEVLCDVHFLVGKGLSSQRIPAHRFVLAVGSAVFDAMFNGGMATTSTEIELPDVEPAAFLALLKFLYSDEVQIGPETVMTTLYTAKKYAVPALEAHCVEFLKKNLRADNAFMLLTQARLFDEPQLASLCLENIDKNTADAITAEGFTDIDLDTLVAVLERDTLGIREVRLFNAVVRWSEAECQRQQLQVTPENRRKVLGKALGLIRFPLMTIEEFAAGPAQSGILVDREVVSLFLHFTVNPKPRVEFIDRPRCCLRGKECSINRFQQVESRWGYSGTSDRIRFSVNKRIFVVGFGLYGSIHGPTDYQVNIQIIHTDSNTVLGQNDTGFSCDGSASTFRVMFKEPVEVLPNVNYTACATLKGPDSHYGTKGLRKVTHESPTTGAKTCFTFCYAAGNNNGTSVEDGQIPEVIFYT
Put plainly: two-hybrid; unpublished results; BTBD1 with BTBD2.

Results are given in words; binding and its absence hold for the method and conditions named. For part of these data: In cells and extracts the contact can be indirect. Some binding calls cover weakened binding; strength is not graded here.

Take “C-terminal region of BTBD2 (aa 219-525) (from UniProt Q9BX70-1 219-525) (domain or fragment)”: the binding entry in test [1] is “no binding”; in test [2], “binds”. The matching figures for “C-terminal region of BTBD1 (aa 186-482) (from UniProt Q9H0C5-1 186-482) (domain or fragment)”: “no binding” and “binds”.

B1: endogenous BTBD2 (protein, UniProt Q9BX70-1 1-525)
chain: MAAGGSGGRASCPPGVGVGPGTGGSPGPSANAAATPAPGNAAAAAAAAAAAAAAPGPTPPAPPGPGTDAQAAGAERAEEAAGPGAAALQREAAYNWQASKPTVQERFAFLFNNEVLCDVHFLVGKGLSSQRIPAHRFVLAVGSAVFDAMFNGGMATTSTEIELPDVEPAAFLALLKFLYSDEVQIGPETVMTTLYTAKKYAVPALEAHCVEFLKKNLRADNAFMLLTQARLFDEPQLASLCLENIDKNTADAITAEGFTDIDLDTLVAVLERDTLGIREVRLFNAVVRWSEAECQRQQLQVTPENRRKVLGKALGLIRFPLMTIEEFAAGPAQSGILVDREVVSLFLHFTVNPKPRVEFIDRPRCCLRGKECSINRFQQVESRWGYSGTSDRIRFSVNKRIFVVGFGLYGSIHGPTDYQVNIQIIHTDSNTVLGQNDTGFSCDGSASTFRVMFKEPVEVLPNVNYTACATLKGPDSHYGTKGLRKVTHESPTTGAKTCFTFCYAAGNNNGTSVEDGQIPEVIFYT
For the molecule B1, the results for the binding entry in test [3] and in test [4] were “no binding” and “binds”, respectively.

B2: endogenous BTBD1 (protein, UniProt Q9H0C5-1 1-482)
chain: MASLGPAAAGEQASGAEAEPGPAGPPPPPSPSSLGPLLPLQREPLYNWQATKASLKERFAFLFNSELLSDVRFVLGKGRGAAAAGGPQRIPAHRFVLAAGSAVFDAMFNGGMATTSAEIELPDVEPAAFLALLRFLYSDEVQIGPETVMTTLYTAKKYAVPALEAHCVEFLTKHLRADNAFMLLTQARLFDEPQLASLCLDTIDKSTMDAISAEGFTDIDIDTLCAVLERDTLSIRESRLFGAVVRWAEAECQRQQLPVTFGNKQKVLGKALSLIRFPLMTIEEFAAGPAQSGILSDREVVNLFLHFTVNPKPRVEYIDRPRCCLRGKECCINRFQQVESRWGYSGTSDRIRFTVNRRISIVGFGLYGSIHGPTDYQVNIQIIEYEKKQTLGQNDTGFSCDGTANTFRVMFKEPIEILPNVCYTACATLKGPDSHYGTKGLKKVVHETPAASKTVFFFFSSPGNNNGTSIEDGQIPEIIFYT
With B2, the binding entry in test [3] is listed as “no binding”; in test [4], “binds”.

B3: BTBD1 (two-hybrid construct of the unpublished BTBD1-BTBD2 assay) (protein, UniProt Q9H0C5-1 1-482)
chain: MASLGPAAAGEQASGAEAEPGPAGPPPPPSPSSLGPLLPLQREPLYNWQATKASLKERFAFLFNSELLSDVRFVLGKGRGAAAAGGPQRIPAHRFVLAAGSAVFDAMFNGGMATTSAEIELPDVEPAAFLALLRFLYSDEVQIGPETVMTTLYTAKKYAVPALEAHCVEFLTKHLRADNAFMLLTQARLFDEPQLASLCLDTIDKSTMDAISAEGFTDIDIDTLCAVLERDTLSIRESRLFGAVVRWAEAECQRQQLPVTFGNKQKVLGKALSLIRFPLMTIEEFAAGPAQSGILSDREVVNLFLHFTVNPKPRVEYIDRPRCCLRGKECCINRFQQVESRWGYSGTSDRIRFTVNRRISIVGFGLYGSIHGPTDYQVNIQIIEYEKKQTLGQNDTGFSCDGTANTFRVMFKEPIEILPNVCYTACATLKGPDSHYGTKGLKKVVHETPAASKTVFFFFSSPGNNNGTSIEDGQIPEIIFYT
As for B3, the binding entry in test [5] is listed as “binds”.
